Results as given in PMC9911399, “Two distinct binding modes provide the RNA-binding protein RbFox with extraordinary sequence specificity”.
Residue numbers refer to the chain shown, from its start. Some of the results follow.

T1: RBFOX1 RRM (Homo sapiens, UniProt Q9NWB1 109-208)
T1 sequence: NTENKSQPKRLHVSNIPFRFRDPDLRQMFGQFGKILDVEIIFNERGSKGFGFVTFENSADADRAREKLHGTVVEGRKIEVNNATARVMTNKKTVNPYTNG

B1: CAGGGCA (DNA:RNA)
RNA: GGGAGACCGGAAUUCAGAUUGUCCCAGGGCAUUAAAUCCCGUCGUAGCCACCA
DNA 1: CAATCTGAATTCCGGTCTCCC
DNA 2: TGGTGGCTACGACGGGATT
B2: CGACACC (DNA:RNA)
RNA: B1 RNA with A26G, G27A, G28C, G29A, A31C
DNA 1: CAATCTGAATTCCGGTCTCCC
DNA 2: TGGTGGCTACGACGGGATT
B3: CGUACGG (DNA:RNA)
RNA: B1 RNA with A26G, G27U, G28A, G29C, C30G, A31G
DNA 1: CAATCTGAATTCCGGTCTCCC
DNA 2: TGGTGGCTACGACGGGATT
B4: CUUCCAC (DNA:RNA)
RNA: B1 RNA with A26U, G27U, G28C, G29C, C30A, A31C
DNA 1: CAATCTGAATTCCGGTCTCCC
DNA 2: TGGTGGCTACGACGGGATT
B5: GGUUAUU (DNA:RNA)
RNA: GGGAGACCGGAAUUCAGAUUGUCCGGUUAUUUUAAAUCCCGUCGUAGCCACCA
DNA 1: CAATCTGAATTCCGGTCTCCC
DNA 2: TGGTGGCTACGACGGGATT
B6: ACGCCUU (DNA:RNA)
RNA: B5 RNA with G25A, G26C, U27G, U28C, A29C
DNA 1: CAATCTGAATTCCGGTCTCCC
DNA 2: TGGTGGCTACGACGGGATT
B7: GGAGACA (DNA:RNA)
RNA: B1 RNA with C25G, A26G, G27A, G29A
DNA 1: CAATCTGAATTCCGGTCTCCC
DNA 2: TGGTGGCTACGACGGGATT
B8: UAGACCG (DNA:RNA)
RNA: B1 RNA with C25U, G28A, G29C, A31G
DNA 1: CAATCTGAATTCCGGTCTCCC
DNA 2: TGGTGGCTACGACGGGATT
B9: CAACGUG (DNA:RNA)
RNA: B1 RNA with G27A, G28C, C30U, A31G
DNA 1: CAATCTGAATTCCGGTCTCCC
DNA 2: TGGTGGCTACGACGGGATT
B10: UGUGGGC (DNA:RNA)
RNA: B1 RNA with C25U, A26G, G27U, C30G, A31C
DNA 1: CAATCTGAATTCCGGTCTCCC
DNA 2: TGGTGGCTACGACGGGATT
B11: CAUUAUG (DNA:RNA)
RNA: B5 RNA with G25C, G26A, U31G
DNA 1: CAATCTGAATTCCGGTCTCCC
DNA 2: TGGTGGCTACGACGGGATT
B12: CUCUCGC (DNA:RNA)
RNA: B1 RNA with A26U, G27C, G28U, G29C, C30G, A31C
DNA 1: CAATCTGAATTCCGGTCTCCC
DNA 2: TGGTGGCTACGACGGGATT
B13: UUAUGUG (DNA:RNA)
RNA: B5 RNA with G25U, G26U, U27A, A29G, U31G
DNA 1: CAATCTGAATTCCGGTCTCCC
DNA 2: TGGTGGCTACGACGGGATT
B14: UCCCUUU (DNA:RNA)
RNA: B5 RNA with G25U, G26C, U27C, U28C, A29U
DNA 1: CAATCTGAATTCCGGTCTCCC
DNA 2: TGGTGGCTACGACGGGATT
B15: UGAGCUA (DNA:RNA)
RNA: B1 RNA with C25U, A26G, G27A, G29C, C30U
DNA 1: CAATCTGAATTCCGGTCTCCC
DNA 2: TGGTGGCTACGACGGGATT
B16: AGGCAGG (DNA:RNA)
RNA: B5 RNA with G25A, U27G, U28C, U30G, U31G
DNA 1: CAATCTGAATTCCGGTCTCCC
DNA 2: TGGTGGCTACGACGGGATT
B17: GUUAGUU (DNA:RNA)
RNA: B5 RNA with G26U, U28A, A29G
DNA 1: CAATCTGAATTCCGGTCTCCC
DNA 2: TGGTGGCTACGACGGGATT
B18: UUCGCCU (DNA:RNA)
RNA: B1 RNA with C25U, A26U, G27C, G29C, A31U
DNA 1: CAATCTGAATTCCGGTCTCCC
DNA 2: TGGTGGCTACGACGGGATT
B19: CCUAGUG (DNA:RNA)
RNA: B1 RNA with A26C, G27U, G28A, C30U, A31G
DNA 1: CAATCTGAATTCCGGTCTCCC
DNA 2: TGGTGGCTACGACGGGATT
B20: UUUCUAC (DNA:RNA)
RNA: B5 RNA with G25U, G26U, U28C, A29U, U30A, U31C
DNA 1: CAATCTGAATTCCGGTCTCCC
DNA 2: TGGTGGCTACGACGGGATT
B21: GGAUGCG (DNA:RNA)
RNA: B5 RNA with U27A, A29G, U30C, U31G
DNA 1: CAATCTGAATTCCGGTCTCCC
DNA 2: TGGTGGCTACGACGGGATT
B22: AGCGUCU (DNA:RNA)
RNA: B1 RNA with C25A, A26G, G27C, G29U, A31U
DNA 1: CAATCTGAATTCCGGTCTCCC
DNA 2: TGGTGGCTACGACGGGATT
B23: GGAAGGC (DNA:RNA)
RNA: B5 RNA with U27A, U28A, A29G, U30G, U31C
DNA 1: CAATCTGAATTCCGGTCTCCC
DNA 2: TGGTGGCTACGACGGGATT
B24: GAAAAGC (DNA:RNA)
RNA: B5 RNA with G26A, U27A, U28A, U30G, U31C
DNA 1: CAATCTGAATTCCGGTCTCCC
DNA 2: TGGTGGCTACGACGGGATT
B25: UUUGCUU (DNA:RNA)
RNA: B5 RNA with G25U, G26U, U28G, A29C
DNA 1: CAATCTGAATTCCGGTCTCCC
DNA 2: TGGTGGCTACGACGGGATT
B26: CGUCUAC (DNA:RNA)
RNA: B5 RNA with G25C, U28C, A29U, U30A, U31C
DNA 1: CAATCTGAATTCCGGTCTCCC
DNA 2: TGGTGGCTACGACGGGATT
B27: GCUGGCU (DNA:RNA)
RNA: B1 RNA with C25G, A26C, G27U, A31U
DNA 1: CAATCTGAATTCCGGTCTCCC
DNA 2: TGGTGGCTACGACGGGATT
B28: UAUAUUG (DNA:RNA)
RNA: B5 RNA with G25U, G26A, U28A, A29U, U31G
DNA 1: CAATCTGAATTCCGGTCTCCC
DNA 2: TGGTGGCTACGACGGGATT
B29: AACGCCU (DNA:RNA)
RNA: B1 RNA with C25A, G27C, G29C, A31U
DNA 1: CAATCTGAATTCCGGTCTCCC
DNA 2: TGGTGGCTACGACGGGATT
B30: GCUAUUG (DNA:RNA)
RNA: B5 RNA with G26C, U28A, A29U, U31G
DNA 1: CAATCTGAATTCCGGTCTCCC
DNA 2: TGGTGGCTACGACGGGATT
B31: AUGCCCU (DNA:RNA)
RNA: B1 RNA with C25A, A26U, G28C, G29C, A31U
DNA 1: CAATCTGAATTCCGGTCTCCC
DNA 2: TGGTGGCTACGACGGGATT

Biological target: T1, RBFOX1 RRM
Experiment: EMSA; HiTS-Eq, 1 nM pool, 10 min; buffer printed only for the single-RNA assays: 10 mM Tris pH 7.5, 150 mM NaCl, 3.4 mM EDTA, 0.001% NP-40, 30 C
Conditions: tags: His6 N-terminal (pET28a); label: 5' 32P
Outline: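 Purified RbFox RRM, wild type or mutant, was incubated for 10 min in 50 µL with 1 nM of a 5′-radiolabelled RNA pool carrying 7 randomized nucleotides, whose flanks were annealed to DNA oligonucleotides, over a series of increasing protein concentrations. Unbound RNA was resolved on 8% native PAGE, cut out, reverse-transcribed, barcoded by PCR and sequenced on an Illumina HiSeq 2500. Relative association constants were derived from changes in read counts for each RNA species versus the control reaction and normalised to the cognate motif.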

Binder	binding signal
B1	0.0123 KA relative to UGCAUGU
B2	0.00666 KA relative to UGCAUGU
B3	0.00683 KA relative to UGCAUGU
B4	0.00388 KA relative to UGCAUGU
B5	0.00138 KA relative to UGCAUGU
B6	0.00619 KA relative to UGCAUGU
B7	0.0108 KA relative to UGCAUGU
B8	0.00882 KA relative to UGCAUGU
B9	0.0072 KA relative to UGCAUGU
B10	0.0102 KA relative to UGCAUGU
B11	0.007 KA relative to UGCAUGU
B12	0.00986 KA relative to UGCAUGU
B13	0.0206 KA relative to UGCAUGU
B14	0.00154 KA relative to UGCAUGU
B15	0.015 KA relative to UGCAUGU
B16	0.0153 KA relative to UGCAUGU

Binder	binding signal
B17	0.0115 KA relative to UGCAUGU
B18	0.0127 KA relative to UGCAUGU
B19	0.00931 KA relative to UGCAUGU
B20	0.0115 KA relative to UGCAUGU
B21	0.0222 KA relative to UGCAUGU
B22	0.0079 KA relative to UGCAUGU
B23	0.00795 KA relative to UGCAUGU
B24	0.00277 KA relative to UGCAUGU
B25	0.0228 KA relative to UGCAUGU
B26	0.0022 KA relative to UGCAUGU
B27	0.0261 KA relative to UGCAUGU
B28	0.0186 KA relative to UGCAUGU
B29	0.00525 KA relative to UGCAUGU
B30	0.0132 KA relative to UGCAUGU
B31	0.00532 KA relative to UGCAUGU
